# Laboratory results published in PubChem BioAssay AID1030 (National Center for Advancing Translational Sciences (NCATS), 2008).
# The campaign covered roughly 220,000 compounds. About 16,000 (7.3%) were called active. The inconclusive results got no clear call from the source; some entries with a clear call stand among them for comparison. The call rests on the fitted dose curve; in most records, active means well fitted inhibition curve with a large enough effect (not every such curve was filed as active); inconclusive means small, poorly fitted or top-dose-only effect, or another doubt; inactive means no such curve, though single readings can be large or run the other way. Potencies of inconclusive entries are left out as doubtful fits.
# Biological target: Aldehyde dehydrogenase 1A1 (Homo sapiens) (UniProt P00352)
# UniProt P00352, sequence (P00352 whole entry, looked up): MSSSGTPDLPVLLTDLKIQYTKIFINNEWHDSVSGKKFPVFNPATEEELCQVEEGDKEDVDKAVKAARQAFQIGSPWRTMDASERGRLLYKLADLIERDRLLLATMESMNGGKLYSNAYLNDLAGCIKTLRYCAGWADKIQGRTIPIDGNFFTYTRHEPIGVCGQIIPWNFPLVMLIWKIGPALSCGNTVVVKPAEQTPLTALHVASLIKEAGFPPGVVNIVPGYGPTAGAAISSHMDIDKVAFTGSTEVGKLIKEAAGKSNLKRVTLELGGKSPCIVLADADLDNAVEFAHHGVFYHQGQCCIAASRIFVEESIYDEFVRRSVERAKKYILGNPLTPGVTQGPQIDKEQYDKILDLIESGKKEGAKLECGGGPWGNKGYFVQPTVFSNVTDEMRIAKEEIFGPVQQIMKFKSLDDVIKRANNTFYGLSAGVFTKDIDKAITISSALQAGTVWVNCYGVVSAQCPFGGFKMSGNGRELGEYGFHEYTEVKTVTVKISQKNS
# Test: qHTS Assay for Inhibitors of Aldehyde Dehydrogenase 1 (ALDH1A1);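 on activity, negative = inhibition: plate controls were no enzyme wells and a reference inhibitor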
# Details: Purified ALDH1A1, NADH fluorescence, propionaldehyde substrate; series mostly up to 75.3 µM; activity, negative = inhibition: at the top concentration
# Potency means the concentration at half of the fitted maximal effect; tags describe the fitted curve by direction and shape.
Structure (SMILES),Potency,"activity, negative = inhibition"
c1ccc(Cc2nnc3sc(-c4ccccn4)nn23)cc1,active: 14.1 µM,–
CC(C)c1ccccc1NC(=S)NC(C)c1ccccc1 (stereo not given),–,inactive: 2.17%
O=C(OCC(=O)N1CCN(c2ccccc2)CC1)c1cccc(Cl)c1,–,inactive: 1.14%
CCCCn1c(-c2ccccc2)cnc1SCC(=O)NCCc1ccc(OC)c(OC)c1,–,inactive: -8.82%
CC12CCC(C(=O)N3CCN(C(c4ccccc4)c4ccccc4)CC3)(OC1=O)C2(C)C (stereo not given),"inconclusive [inhibitor, single point]",–
CCCCn1c(N)c(N(CC)C(=O)c2cc(Br)ccc2Cl)c(=O)[nH]c1=O,–,inactive: 14.3%
Cc1ccc(C2/C(=C(/O)c3cnn(-c4ccccc4)c3C)C(=O)C(=O)N2CCN2CCOCC2)o1 (stereo not given),active: 7.94 µM,–
COC(=O)c1nn(-c2ccccc2)c(Cl)c1/C=N/OCc1ccc(Cl)cc1Cl,"inconclusive [inhibitor, single point]",–
CCOC(=O)C1(CCOc2ccccc2)CCN(Cc2ccncc2)CC1,"inconclusive [inhibitor, partial curve]",–
Cc1ccc(CNC(=O)C2CCN(S(=O)(=O)c3c(C)noc3/C=C/c3ccco3)CC2)cc1,"inconclusive [inhibitor, single point]",–
CC1CCCN(c2nc3c(c(=O)n(C)c(=O)n3C)n2CCSc2nc3ccccc3s2)C1 (stereo not given),active: 14.1 µM,–
COc1cccc(CSCC(=O)O)c1,–,inactive: -2.39% [at 13.5 µM]
Cc1ccc([N+](=O)[O-])cc1NC(=O)CN(C1CCCCC1)S(=O)(=O)c1ccc(Cl)cc1,"inconclusive [inhibitor, partial curve, poor fit]",–
COc1ccc(Cc2nc(=S)[nH][nH]2)cc1Br,active: 6.31 µM,–
COc1cccc(C(=O)N2CCCC(CCC(=O)NCc3ccc(F)c(F)c3)C2)c1 (stereo not given),–,inactive: -7.32%
Cc1ccc(N2CCN(c3ccc(C)cc3)C2c2ccccn2)cc1,"inconclusive [inhibitor, single point]",–
CCOC(=O)C1=C(O)C(=O)N(c2ccc(S(N)(=O)=O)cc2)C1c1ccc(Cl)cc1 (stereo not given),"inconclusive [inhibitor, partial curve]",–
COc1ccccc1N1CCN(C(=O)CSc2nnc(NC(=O)C3CC3)s2)CC1,"inconclusive [inhibitor, single point]",–
CCCCCCCC(=O)N/N=C(\C)c1ccc(O)cc1O,"inconclusive [inhibitor, partial curve]",–
CCOC(=O)CC1COCCN1C(=O)CCc1nnc(-c2ccsc2)o1 (stereo not given),"inconclusive [inhibitor, single point]",–
